Publication PMC12040169 (PLOS Biology, 2025)
Where two headings read alike, the source gives them in different places. This is one part of the list.

System: T1, C. trachomatis L2/434/Bu expressing GFP (CTL2-GFP)
T1 construct: L2/434/Bu GFP intracellular growth in HeLa cells
Set-up: species or system HeLa; C. trachomatis total inclusion area by high-content imaging, normalised to DMSO
Method in brief: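 High-content images of fixed, Hoechst-stained infected cultures supply inclusion area and count (growth) plus nuclei number (viability), complementing bulk GFP/resorufin fluorescence. MIC determination is unchanged from the primary assay.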

[1] = total inclusion area; 28.5 h, 10 µM; inhibitor

Row | SMILES | % of control remaining [1] | % of control remaining (total inclusion area, 28.5 h, 10 µM, inhibitor)
1 | COc1ccc(C[C@@H]2NC(=O)[C@H]3CN(C(=O)c4cccc(F)c4)CCN3C2=O)cc1 [CBK289604] | 107.331 | –
2 | COc1ccc([C@@]23CC[C@@H](NC(=O)Nc4cc(F)c(C#N)cc4F)C[C@@H]2N(C)CC3)cc1OC [CBK073979T] | 102.663 | –
3 | C=CCn1c(Cc2csc(NC(=O)c3ccc(Cl)cc3)n2)n[nH]c1=S [CBK295318] | 100.976 | –
4 | CCSC(C)CC1C/C(=N/O)c2c(C)noc2C1 (stereo not drawn) [CBK021455] | 87.1422 | –
5 | CCOC(=O)Cn1cnc2nc3c(cc2c1=O)CC(C)CC3 (stereo not drawn) [CBK294402] | 114.823 | –
6 | Nc1nnc(SCC(=O)Nc2ccc3c(c2)OCCO3)s1 [CBK266331] | 82.1313 | –
7 | O=C(NCc1ccco1)[C@@H]1C=CCN1C(=O)Nc1ccccc1Cl [CBK284269] | 89.0004 | –
8 | c1ccc(-c2ccc(OCCCCN3CCNCC3)cc2)cc1 [CBK266028G] | 94.0548 | –
9 | CCC(NC(=O)Nc1ccccc1C(=O)O)(C(F)(F)F)C(F)(F)F [CBK268000] | 102.857 | –
10 | CCOc1ccsc1C(=O)N1CCN(CCc2ccccc2)CC1 [CBK200229] | 119.229 | –
11 | Cc1ccc(S(=O)(=O)NCC(=O)Nc2ccc3cc(Br)cnc3n2)cc1 [CBK067429] | 67.4962 | –
12 | CC(NC(=O)c1cc(C(F)(F)F)[nH]n1)c1ccccn1 (stereo not drawn) [CBK281712] | 99.3356 | –
13 | O=C(Nc1cccc(S(=O)(=O)N2CCOCC2)c1)c1cc2ccccc2oc1=O [CBK268170] | 64.5902 | –
14 | CCC(CN1CCCC1)NC(=O)Cc1cc(C)ccc1OC (stereo not drawn) [CBK282759] | 118.421 | –
15 | O=C(Cc1ccccc1)N1CCCC1c1n[nH]cc1-c1ccncc1 (stereo not drawn) [CBK283435] | 118.437 | –
16 | COC(=O)N1CCc2ccc(N3C[C@H](CNC(C)=O)OC3=O)cc2CC1 [CBK022485] | 7.088 | –
17 | COC(=O)CCCN1CCCC12CCc1[nH]c3ccccc3c1C2 (stereo not drawn) [CBK107798T] | 86.7261 | –
18 | C[C@@H](Nc1nc(-c2cccc3ncccc23)cnc1N)c1ccccc1 [CBK063755] | 60.089 | –
19 | CC(=O)N[C@H](C(=O)N1CC[C@@H]2NC(=O)[C@@H](Cc3ccccc3)NC(=O)C3(C/C=C/C[C@@H]2C1)CCOCC3)[C@@H](C)O [CBK292186] | 110.449 | –
20 | CC[C@H]1C[N@@]2CC[C@H]1C[C@@H]2CNS(=O)(=O)c1ccc(NC(C)=O)cc1 [CBK288745] | 105.136 | –
21 | CC(C)NC(=O)N(C)C1CCN(c2ncnc3ccccc23)CC1 [CBK306224] | 16.0813 | –
22 | COc1ccc(-c2ccnc(N[C@H]3CO[C@H]4[C@@H]3OC[C@@H]4NC(=O)C3CCCCC3)n2)cc1 [CBK289527] | 112.543 | –
23 | O=C(O)CCN1C(=O)C(=Cc2ccc(OCc3ccccc3)cc2)c2ccccc2C1=O [CBK297552] | 103.471 | –
24 | COc1ccc(CCCN2CCC(C(=O)NC(=O)Nc3cc(OC)c(OC)c(OC)c3)CC2)cc1 [CBK034855] | 98.7678 | –
25 | CCC(Sc1nc(=O)cc(-c2ccccc2)[nH]1)C(=O)O (stereo not drawn) [CBK287135] | 95.3402 | –
26 | CC(=O)NC[C@H]1CN(c2ccc(-c3nnc(CCC#N)s3)c(F)c2)C(=O)O1 [CBK017926] | 0.07508 | –

Row | SMILES | % of control remaining [1] | % of control remaining (total inclusion area, 28.5 h, 10 µM, inhibitor)
27 | Cc1ccccc1Nc1nnc(-c2ccc(C(=O)NCCO)cc2)c2ccccc12 [CBK263743] | 83.3014 | –
28 | CN1C(=O)C2(CC(=O)N(CCC3CCCCC3)C2=O)c2cc(Cl)ccc21 (stereo not drawn) [CBK075231] | 87.8293 | –
29 | O=C(NC1CCc2ccccc21)N1CCN(c2ccccc2)CC1 (stereo not drawn) [CBK155208] | 109.4 | –
30 | CC(C)(C)C1=CC2=NC3(CCC3)C3C[C@](O)(CO)[C@@H](O)[C@@H]3N2O1 (stereo partly drawn) [CBK303262] | 84.4442 | –
31 | COc1ccc(C(=O)N[C@H]2C[C@@H]3C(=O)N[C@H]4CCN(C(=O)C5CCC5)[C@@H]4C(=O)N3C2)cc1 [CBK289266] | 105.894 | –
32 | CC(C(=O)N1C2CCC1CC(O)(c1ccco1)C2)c1ccccc1 (stereo not drawn) [CBK284112] | 98.4315 | –
33 | O=C(O)C1(Cc2ccc(-c3cccs3)cc2)CCNC1 (stereo not drawn) [CBK281679] | 78.6768 | –
34 | COCc1cn(C2CCN(c3cc(-n4cc(C)cn4)ncn3)CC2)nn1 [CBK307388] | 53.8591 | –
35 | NS(=O)(=O)c1ccc(CN2CCCC2=O)cc1 [CBK288420] | 114.41 | –
36 | CC(C)(C)NC(=O)N1CCC(Nc2nccc(C(F)(F)F)n2)CC1 [CBK028788] | 37.2992 | –
37 | Cc1nn(C)c(C(=O)Nc2sc3c(c2C#N)CCC(C)C3)c1Br (stereo not drawn) [CBK304212] | 38.9353 | –
38 | Nc1nc(-c2ccc3c(c2)CCC(=O)N3)cs1 [CBK086133] | 99.811 | –
39 | Oc1ccc2nc(N[C@H]3CC4CCC3C4)sc2c1Cl (stereo partly drawn) [CBK024348G] | 27.7403 | –
40 | CCc1nc2ccc(C(=O)N3CCN(C(=O)c4ccco4)CC3)cn2c1N(C)Cc1ccncc1 [CBK145635] | 103.99 | –
41 | CC(NCCCN(C)C)=C1C(=O)c2ccccc2C1=O [CBK262674] | 90.859 | –
42 | COc1cc([C@@]23CC[C@@H](NC(=O)Nc4cccc(Cl)c4)C[C@@H]2N(C)CC3)cc(OC)c1OC [CBK039212] | 95.8448 | –
43 | Cc1cc(OC(C)C(=O)Nc2ccccc2C(=O)N2CCCCC2)ccc1Cl (stereo not drawn) [CBK269696] | 95.7264 | –
44 | N#CCCN(C(=O)NCc1cccnc1)C1CCCCC1 [CBK156355] | 147.085 | –
45 | COc1ccccc1C(=O)Nc1ccc([C@@H](O)[C@H]2COCC(=O)N2)cc1 [CBK289688] | 114.761 | –
46 | c1csc(COc2nccnc2-c2cc3ccccc3s2)c1 [CBK106786] | 79.1752 | –
47 | CN(C)c1ccccc1-c1cc(N2CCN(S(=O)(=O)c3ccc(Cl)cc3)CC2)ncn1 [CBK037039] | 74.5462 | –
48 | N#CC1=C(N)Oc2[nH]nc(-c3ccc4ccccc4c3)c2C1c1cn(CC(N)=O)nc1-c1ccccc1 (stereo not drawn) [CBK266624] | 89.5589 | –
49 | CC(C(=O)Nc1ccc2c(c1)OCO2)N(c1ccc(Cl)cc1)S(C)(=O)=O (stereo not drawn) [CBK268595] | 116.78 | –
50 | CC1(CNC(=O)c2cn3cc(Cl)ccc3n2)COC1 [CBK281748] | 115.37 | –
51 | CC(C)CN1CCCN(S(=O)(=O)c2ccc(C(F)(F)F)cc2Cl)CC1 [CBK062943] | 103.531 | –
52 | O=C(O)CCCNS(=O)(=O)/C=C/c1ccccc1 [CBK287170] | 88.6773 | –

Row | SMILES | % of control remaining [1] | % of control remaining (total inclusion area, 28.5 h, 10 µM, inhibitor)
53 | CC(C)(C)OC(=O)N1CCC[C@@H](C(=O)c2cccs2)C1 [CBK284310] | 73.7887 | –
54 | COc1ccc2[nH]cc(CCNC(=O)Cc3ccsc3)c2c1 [CBK116205] | 100.592 | –
55 | COc1ccc(C2(CN3CCC(NC(C)=O)CC3)CC2)cc1 [CBK285357] | 86.1326 | –
56 | O=S(=O)(Nc1ccc2c(ccn2Cc2ccccc2)c1)c1cc(C(F)(F)F)cc(C(F)(F)F)c1 [CBK159540] | 45.518 | –
57 | Cc1ccc(-c2ccc(N3CCCC(C(=O)O)C3)nn2)cc1C (stereo not drawn) [CBK300513] | 73.4175 | –
58 | Cc1ccc(S(=O)(=O)NC[C@H]2O[C@@H](CC(=O)N3CCc4ccccc43)[C@H](O)[C@@H]2O)cc1 [CBK288917] | 99.6121 | –
59 | Cc1sc2nc(C(C)Nc3ccc4[nH]c(=O)[nH]c4c3)[nH]c(=O)c2c1C (stereo not drawn) [CBK297915] | 89.6949 | –
60 | O=C1NC2(CCNCC2)Oc2ccc(-c3cccnc3)cc21 [CBK086611] | 108.385 | –
61 | Cc1c(C(=O)O)sc2nc(SCC(=O)NCc3ccccc3)[nH]c(=O)c12 [CBK301214K] | – | 111.653
62 | CC(=O)N1CCN(Cc2c(C3CCCC3)[nH]c3ncccc23)CC1 [CBK285339] | 96.4254 | –
63 | O=C(Cc1ccc(F)cc1Cl)N1CCC(O)(c2ccccn2)CC1 [CBK283755] | 97.1373 | –
64 | NC(=O)c1ccccc1NC(=O)COc1ccccc1 [CBK262599] | 105.499 | –
65 | COc1ccc2nc(C(=O)O)sc2c1 [CBK026523N] | 97.5368 | –
66 | CN1CC(CO)CCC1Cc1c[nH]c2ccccc12 (stereo not drawn) [CBK011468] | 97.4221 | –
67 | Cn1c(N2CCOCC2)cc(=O)c2ccccc21 [CBK007775] | 103.126 | –
68 | Cc1cc(NS(=O)(=O)N2CCOCC2)no1 [CBK269894] | 111.039 | –
69 | CN1CCC[C@H]1C(=O)N1CCN(C(=O)c2ccco2)CC1 [CBK144449] | 102.152 | –
70 | CC(=O)Nc1onc(C)c1-c1nc(-c2ccc(Cl)cc2Cl)cs1 [CBK067735] | 76.5193 | –
71 | COc1cc(CNc2cncc(-c3cccs3)n2)cc(OC)c1OC [CBK065526] | 89.767 | –
72 | Cc1cc(=O)oc2cc(OC(C)C(=O)NCC(=O)O)ccc12 (stereo not drawn) [CBK286829] | 99.5757 | –
73 | O=C(c1ccco1)N1CCN(c2cncc(-c3ccc4ccccc4c3)n2)CC1 [CBK065184] | 103.155 | –
74 | c1ccc(Nc2nc3nonc3n3cnnc23)cc1 [CBK287278] | 96.1824 | –
75 | CC1CCN(S(=O)(=O)c2ccc(NC(=O)C3=COCCO3)cc2)CC1 [CBK295332] | 115.931 | –
76 | COC(=O)[C@@H](C)NC(=O)[C@H]1CN(C(=O)c2cccnc2)CCN1C(=O)NC(C)C [CBK289630] | 105.377 | –
77 | Nc1nc(=O)n([C@@H]2O[C@H](CO)[C@H](O)C2O)cc1I (stereo partly drawn) [CBK201306] | 100.659 | –
78 | CCN(CC)C(=O)c1cccc(NS(=O)(=O)c2ccc(C)c(C(=O)O)c2)c1 [CBK296665] | 111.218 | –
